Marks after values point to notes of the source that are not given here.
Experiments:
[1] = target: T1, human eIF4E1a (Homo sapiens, UniProt P06730); test: Fluorescence quenching titration (FQT) binding assay with eIF4E; conditions: 20 °C, pH 7.2, average of triplicates ± SD, read-out: heIF4E1a KD
T1 construct: made in house; host or cells: E. coli Rosetta 2 (DE3)pLysS
Protocol: The human eIF4E1a protein was expressed without affinity tag in E. coli Rosseta 2 (DE3)pLysS strain (Novagen) under conditions leading to accumulation of the produced protein in inclusion bodies ([48]). The protein was extracted from inclusion bodies with buffer containing 6 M guanidine hydrochloride, refolded by one-step dialysis against 50 mM HEPES/KOH (pH 7.2), 100 mM KCl, 0.5 mM EDTA, 2 mM DTT, and purified by ion exchange chromatography on HiTrap SP HP 5 ml column (GE Healthcare) using salts gradient. Finally, protein was filtered using Ultrafree MC-HV Centrifugal PVDF filters with 0.45 μm membrane pore (Millipore) to remove protein aggregates and its concentration was determined spectrophotometrically assuming the theoretical extinction coefficient ϵ280nm = 52 940 L mol^−1cm^−1—calculated from amino acid composition using algorithm on ExPASy Server.
Fluorescence titration measurements were carried out on a LS-55 spectrofluorometer (Perkin Elmer Co., Norwalk, CT, USA) in a quartz semi-micro cuvette (Hellma, Germany) with optical lengths 4 mm and 10 mm for absorption and emission, respectively, which was thermostated at 20.0 ± 0.2 °C. The titrations were performed in 50 mM Hepes/KOH pH 7.2, 100 mM KCl, 0.5 mM EDTA and 1 mM DTT by adding 1 μl aliquots of increasing concentrations of the cap solutions to 1.4 ml of 0.1 μM eIF4E1a solution. The eIF4E1a fluorescence was excited at 280 nm and the fluorescence intensity was monitored at a single wavelength 340 nm. The measured fluorescence intensities were corrected for dilution (<4%) and for the inner filter effect. Association equilibrium constants (Kas) were obtained by fitting the theoretical curve for fluorescence intensity (F) upon total concentration of cap analogs ([L]) to the titration data according to the equation: […]
with the concentration of the cap analogs–eIF4E1a complex [cx] given by:
where Δϕ stands for the difference between the fluorescence efficiencies of the apo- and cap analog bound proteins; ϕlig-free is the fluorescence efficiency of the free cap analog; F(0) is the initial fluorescence, and Pact is the total concentration of the active protein ([49]). The final KAS values were calculated as a weighted average from three independent titrations and represented as the KD values. Numerical least-squares nonlinear regression analysis was performed using ORIGIN 2021 from Microcal Software Inc., USA.
Recognition of the mRNA 5′ cap by translation initiation factor 4E (eIF4E) is considered to be the rate-limiting step for the entire translation process ([63],[64]), therefore we investigated the affinity of novel trinucleotide cap analogs to the canonical human eIF4E1a protein by fluorescence quenching titration (FQT; Table 1 column 1, Figure 3) ([65]). As a reference, we determined the dissociation constant between heIF4E1a and the trinucleotide cap-1 structure m^7GpppAmpG, which was equal to 42 nM and very close to the analogous value previously determined for mouse Δ27NeIF4E (46 nM) ([12]). In the case of all modifications tested, the KD values for cap-heIF4E1a complexes are consistent with the results previously obtained for dinucleotide counterparts and murine eIF4E protein, although the magnitude of the modification effect is generally lower. The most tightly bound tetraphosphate analogs (compounds 10–12) show KD values of 6–7 nM, which means that their affinity is about 6-fold higher compared to the triphosphate counterparts. The affinities decrease upon CH2 or CCl2 modification of the tetraphosphate bridge (compounds 13–16), but they are still 4–5 times higher than for the triphosphate analogs with the same adenosine methylation pattern.

[2] = target: T2, T7 RNA polymerase (Escherichia phage T7, UniProt P00573); test: Capping efficiency of short RNA in in vitro transcription (co-transcriptional capping); assay type: biochemical
T2 construct: 6xHis (N); made in house; host or cells: E. coli BL21 (DE3) RIL

[3] = target: T3, Human Dcp2 (Homo sapiens, UniProt Q8IU60); test: RNA decapping assay with recombinant hDcp2; assay type: biochemical; conditions: fraction of decapped RNA after 30 min of incubation with hDcp2, 27-nt RNA capped with the analog, 37 °C; triplicates ± SD
T3 construct: made in house; host or cells: E. coli
Protocol: Human Dcp2 was expressed in E. coli and purified as described previously ([52]). Short 27 nt-capped RNAs (24.2 ng) were diluted with decapping buffer (50 mM Tris–HCl pH 8.0, 50 mM NH4Cl, 0.01% NP-40, 1 mM DTT, 5 mM MgCl2 and 2 mM MnCl2; 2.9 μl of freshly prepared 10 × Buffer) and the final volume was adjusted to 29 μl with ultrapure RNase free water. 4.2 ng (5 μl) of the solution was taken out as time zero reference and diluted with 5 μl loading dye (5 M urea, 44% formamide, 20 mM EDTA, 0.03% bromophenol blue, 0.03% xylene cyanol). The remaining RNAs (20 ng/24 μl) were subjected to 10 nM hDcp2 (250 nM, 1 μl) and the mixtures were incubated at 37°C for 1 h. At defined time points (5, 15, 30 and 60 min), 4 ng of RNA (5 μl) were taken out and the reactions were quenched by adding an equal volume of loading dye. RNAs were resolved electrophoretically on denaturing 15% acrylamide:bisacrylamide 19:1/7 M urea/1 × TBE gel, stained with SYBR Gold (Invitrogen) and visualized using a Typhoon FLA 9500 (GE Healthcare). The decapping progress was determined for each time point by densitometry analysis of the gels, as a ratio between the intensity of the band corresponding to capped RNA and the sum of the intensity of bands from capped and uncapped RNAs. The percentages of remaining capped RNA were then plotted as a function of time.
The RNAs used to determine the capping efficiencies were also useful to study the susceptibility of capped RNA to decapping by hDcp2, the catalytic subunit of the major human mRNA decapping complex Dcp1/Dcp2, which releases m^7GDP and 5′-monophosphorylated RNA (in this case the 26-nt pApG-RNA24; Figure 4C). The progress of decapping at different time points (5, 15, 30 and 60 min) was monitored by HR-PAGE followed by densitometric analysis of the gels (Figure 4C, triplicates of gels are shown in Supplementary Figure S2), and the fraction of remaining capped RNA (27-nt) was plotted as a function of time (Figure 4D-G). […] For better visualization, the data of modified capped RNAs were grouped according to the type of modification present at the 5′ end and presented in separate graphs (Figure 4E–G). To quantify the relative susceptibility to hDcp2, we compared the decapping levels at the 30 min time point (Table 1). For RNAs capped with β-S-triphosphate analogs (1–6, Figure 4E, Table 1), we observed a significant difference in susceptibility to hDcp2 between RP and SP isomers, independent of the methylation pattern.

[4] = system: A549 cells; conditions: for protein production / translation of capped mRNA (in words): A549, GLuc mRNA, comparator as worded (cap-1 RNA or ARCA-capped RNA)
[5] = system: JAWS II cells; conditions: JAWS II; for protein production / translation of capped mRNA (in words): GLuc mRNA, comparator as worded (cap-1 RNA or ARCA-capped RNA)
[6] = short RNA (27 nt after trimming), Φ6.5 promoter, densitometry of PAGE, average of triplicates ± SD

T1 sequence (P06730 whole entry): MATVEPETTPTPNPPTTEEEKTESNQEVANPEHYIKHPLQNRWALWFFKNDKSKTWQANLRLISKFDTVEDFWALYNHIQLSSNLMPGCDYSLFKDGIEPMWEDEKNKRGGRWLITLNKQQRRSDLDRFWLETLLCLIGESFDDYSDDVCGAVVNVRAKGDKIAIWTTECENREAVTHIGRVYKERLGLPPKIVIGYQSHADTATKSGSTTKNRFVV
T2 sequence (P00573 whole entry): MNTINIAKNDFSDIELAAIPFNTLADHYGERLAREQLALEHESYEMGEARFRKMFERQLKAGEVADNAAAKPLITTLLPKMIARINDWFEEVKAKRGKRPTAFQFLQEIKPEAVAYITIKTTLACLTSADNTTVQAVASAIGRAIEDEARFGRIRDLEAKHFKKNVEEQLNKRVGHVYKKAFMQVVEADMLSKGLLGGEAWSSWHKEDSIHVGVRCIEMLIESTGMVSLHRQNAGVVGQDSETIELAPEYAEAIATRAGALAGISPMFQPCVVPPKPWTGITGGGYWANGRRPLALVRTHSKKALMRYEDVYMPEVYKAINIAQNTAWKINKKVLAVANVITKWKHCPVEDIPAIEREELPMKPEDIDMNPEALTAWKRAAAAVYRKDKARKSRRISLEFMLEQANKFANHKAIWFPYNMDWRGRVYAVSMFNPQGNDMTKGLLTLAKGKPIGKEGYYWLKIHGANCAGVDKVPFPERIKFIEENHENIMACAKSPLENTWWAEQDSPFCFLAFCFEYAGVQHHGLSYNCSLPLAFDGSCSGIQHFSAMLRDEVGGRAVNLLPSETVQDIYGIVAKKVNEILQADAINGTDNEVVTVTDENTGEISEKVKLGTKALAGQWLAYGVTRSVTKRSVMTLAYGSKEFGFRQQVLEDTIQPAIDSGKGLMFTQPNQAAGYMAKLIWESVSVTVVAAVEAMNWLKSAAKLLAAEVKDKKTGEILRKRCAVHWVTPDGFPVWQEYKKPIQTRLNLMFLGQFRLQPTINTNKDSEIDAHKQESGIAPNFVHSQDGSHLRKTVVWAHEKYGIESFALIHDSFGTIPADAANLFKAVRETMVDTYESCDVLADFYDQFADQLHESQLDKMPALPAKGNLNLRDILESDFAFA

Compound	Kd [1]	Capping efficiency [2, 6]	Susceptibility to hDcp2 (@30 min) [3]	protein production / translation of capped mRNA (in words) [4]	protein production / translation of capped mRNA (in words) [5]	Capping efficiency ([2]; short RNA, densitometry, value from one replicate only)	fold higher protein levels than mRNA capped with unmodified cap-1 (m^7GpppAmpG) ([4]; A549)	fold higher protein levels than mRNA capped with unmodified cap-1 (m^7GpppAmpG) [5]
CO[C@@H]1[C@H](OP(=O)(O)OC[C@H]2O[C@@H](n3cnc4c(=O)[nH]c(N)nc43)[C@H](O)[C@@H]2O)[C@@H](COP(=O)(O)OP(=O)([O-])OP(=O)(O)OP(=O)(O)OC[C@H]2O[C@@H](n3c[n+](C)c4c(O)nc(N)nc43)[C@H](O)[C@@H]2O)O[C@H]1n1cnc2c(N)ncnc21 [Compound 11, m^7GppppAmpG]	7.2 ± 0.3 nM	86 ± 2%	0.87 ± 0.05					
C[n+]1cn([C@@H]2O[C@H](COP(=O)(O)O[P@](=O)([S-])OP(=O)(O)OC[C@H]3O[C@@H](n4cnc5c(N)ncnc54)[C@H](O)[C@@H]3OP(=O)(O)OC[C@H]3O[C@@H](n4cnc5c(=O)[nH]c(N)nc54)[C@H](O)[C@@H]3O)[C@@H](O)[C@H]2O)c2nc(N)nc(O)c21 [Compound 2, m^7GppSpApG]		87 ± 4%		significantly less protein	significantly less protein			
CNc1ncnc2c1ncn2[C@@H]1O[C@H](COP(=O)(O)OP(=O)([O-])C(Cl)(Cl)P(=O)(O)OP(=O)(O)OC[C@H]2O[C@@H](n3c[n+](C)c4c(O)nc(N)nc43)[C@H](O)[C@@H]2O)[C@@H](OP(=O)(O)OC[C@H]2O[C@@H](n3cnc4c(=O)[nH]c(N)nc43)[C@H](O)[C@@H]2O)[C@H]1OC [Compound 15, m^7GppCCl2pp^m6AmpG]	10.2 ± 0.3 nM	74 ± 14%	0.03 ± 0.00					
CO[C@@H]1[C@H](OP(=O)(O)OC[C@H]2O[C@@H](n3cnc4c(=O)[nH]c(N)nc43)[C@H](O)[C@@H]2O)[C@@H](COP(=O)([O-])OP(=O)(O)CP(=O)(O)OP(=O)(O)OC[C@H]2O[C@@H](n3c[n+](C)c4c(O)nc(N)nc43)[C@H](O)[C@@H]2O)O[C@H]1n1cnc2c(N)ncnc21 [Compound 16, m^7GppCH2ppAmpG]		84 ± 3%						
C[n+]1cn([C@@H]2O[C@H](COP(=O)(O)OP(=O)(O)OP(=O)([O-])SC[C@H]3O[C@@H](n4cnc5c(N)ncnc54)[C@H](O)[C@@H]3OP(=O)(O)OC[C@H]3O[C@@H](n4cnc5c(=O)[nH]c(N)nc54)[C@H](O)[C@@H]3O)[C@@H](O)[C@H]2O)c2nc(N)nc(O)c21 [Compound 7, m^7Gppp^5’SApG]		80 ± 2%		not as beneficial	not as beneficial			
CO[C@@H]1[C@H](O)[C@@H](COP(=O)(O)O[P@](=O)([S-])OP(=O)(O)OC[C@H]2O[C@@H](n3cnc4c(=O)[nH]c(N)nc43)[C@H](O)[C@@H]2O)O[C@H]1n1c[n+](C)c2c(O)nc(N)nc21 [m2^7,2′^-OGppSpG RP (D1), m2^7,2′-OGppSpG, reference compound]				the effect was much smaller	translated much more efficiently than ARCA-capped RNA			
C[n+]1cn([C@@H]2O[C@H](COP(=O)(O)O[P@@](=O)([S-])OP(=O)(O)OC[C@H]3O[C@@H](n4cnc5c(N)ncnc54)[C@H](O)[C@@H]3OP(=O)(O)OC[C@H]3O[C@@H](n4cnc5c(=O)[nH]c(N)nc54)[C@H](O)[C@@H]3O)[C@@H](O)[C@H]2O)c2nc(N)nc(O)c21 [Compound 1, m^7GppSpApG]		86 ± 7%		significantly less protein	significantly less protein			
CO[C@@H]1[C@H](OP(=O)(O)OC[C@H]2O[C@@H](n3cnc4c(=O)[nH]c(N)nc43)[C@H](O)[C@@H]2O)[C@@H](COP(=O)(O)CP(=O)(O)OP(=O)([O-])OC[C@H]2O[C@@H](n3c[n+](C)c4c(O)nc(N)nc43)[C@H](O)[C@@H]2O)O[C@H]1n1cnc2c(N)ncnc21 [Compound 9, m^7GppCH2pAmpG]				reduced the translational activity to the level observed for mRNAs with caps-0	reduced the translational activity to the level observed for mRNAs with caps-0	88%^d		
CO[C@@H]1[C@H](OP(=O)(O)OC[C@H]2O[C@@H](n3cnc4c(=O)[nH]c(N)nc43)[C@H](O)[C@@H]2O)[C@@H](COP(=O)(O)OP(=O)([O-])C(Cl)(Cl)P(=O)(O)OP(=O)(O)OC[C@H]2O[C@@H](n3c[n+](C)c4c(O)nc(N)nc43)[C@H](O)[C@@H]2O)O[C@H]1n1cnc2c(N)ncnc21 [Compound 14, m^7GppCCl2ppAmpG]	9.1 ± 0.5 nM	90 ± 4%	0.01 ± 0.00					
CO[C@@H]1[C@H](OP(=O)(O)OC[C@H]2O[C@@H](n3cnc4c(=O)[nH]c(N)nc43)[C@H](O)[C@@H]2O)[C@@H](CSP(=O)([O-])OP(=O)(O)OP(=O)(O)OC[C@H]2O[C@@H](n3c[n+](C)c4c(O)nc(N)nc43)[C@H](O)[C@@H]2O)O[C@H]1n1cnc2c(N)ncnc21 [Compound 8, m^7Gppp^5’SAmpG]		85 ± 5%		slightly increased translational activity	slightly increased translational activity		1.1–1.3 fold	1.1–1.3 fold

Reference: publication PMC11472058, “Trinucleotide cap analogs with triphosphate chain modifications: synthesis, properties, and evaluation as mRNA capping reagents” (Nucleic Acids Research, 2024)
